± gives the standard deviation of the averaged measurements. Some of the results follow.
System: PfAP2-EXP AP2 domain (GST-tagged)
Test: gcPBM binding intensity (ln(normalized median fluorescence intensity)); higher = stronger DNA binding
Method in brief: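 Binding of GST-tagged P. falciparum DNA-binding domains, expressed in E. coli and used at about 25 μg on average, was carried out for 1 h in 1× PBS containing 1% milk, 0.2 mg/ml BSA, 0.5% salmon testes DNA and 0.03% Triton X-100. The target was an Agilent 4 × 180k array of primer-extended double-stranded 36-bp intergenic genomic probes plus negative controls, read with Alexa488 anti-GST antibody at 488 nm. Binding intensity is the highest Masliner-normalised natural-log median intensity across replicate spots of either probe orientation.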

How did the “gcPBM binding intensity (ln)” value turn out when “TATAAAAAAATATTATAATATATATATATATATATA [XGTACX_negctrl_site41]” was run?
The value was 10.1 ± 0.26.

For “TTTTAAATATGAACATGTACATGTAAATTTACATGT [XGTACX_site4573]”, which “gcPBM binding intensity (ln)” value is on record?
Its value is 8.73 ± 0.31.

For “TTTATAAAAATGAACACACACATATAAATATAAATA [CACACA_site7607]”, which “gcPBM binding intensity (ln)” value is on record?
Its value is 8.65 ± 0.44.

For “AAAAATAGAATAAATACACACCCGTGTAACGGATTT [CACACA_site3372]”, which “gcPBM binding intensity (ln)” value is on record?
The value was 8.12 ± 0.47.

With “AATAATATATTTAGGGGTACATAATAATATATTTTA [XGTACX_site8366]” as the sequence, how does the “gcPBM binding intensity (ln)” value read?
Its value is 8.81 ± 0.6.

How did the “gcPBM binding intensity (ln)” value turn out when “TTATTATTAAAAAAAAGTACAGAATTGAATAATACA [XGTACX_site651]” was run?
Its value is 8.68 ± 0.38.

Which “gcPBM binding intensity (ln)” value does the source give for “TTTTAATTTATTAATTGTACATGTATTTTAAGATTA [XGTACX_site8417]” here?
Its value is 8.41 ± 0.45.

For “ATTTTTGTGTATTAATGTACTTTATGCATATTTGAC [XGTACX_site3353]”, which “gcPBM binding intensity (ln)” value is on record?
The value was 9.1 ± 0.38.

“TAAACATTTGGCTGATGTACTTGCTACCTTAAATCA [XGTACX_site5514]” was tested. Which “gcPBM binding intensity (ln)” value did it give?
Its value is 8.27 ± 0.3.

“TATTTTTATAAGTAAAAGGAGCACAGTTAAAGGATC [XGTACX_negctrl_site362]” was tested. Which “gcPBM binding intensity (ln)” value did it give?
The value was 9.03 ± 0.44.

“AATATTTTTGTCGTTAGTACATAAAAAATAATAATA [XGTACX_site3074]” was tested. Which “gcPBM binding intensity (ln)” value did it give?
Its value is 8.35 ± 0.23.

“AATAATAAAGTGAACACACACATATAATATATATAT [CACACA_site4143]” was tested. Which “gcPBM binding intensity (ln)” value did it give?
Its value is 9.29 ± 0.19.

With “ATAATTAAAATGCTCACACACATAAAAAAAAATTAA [CACACA_site2149]” as the sequence, how does the “gcPBM binding intensity (ln)” value read?
Its value is 8.4 ± 0.4.

With “CAAACAAACGAACACACACACACACGCAAAAATGAT [CACACA_site7194]” as the sequence, how does the “gcPBM binding intensity (ln)” value read?
The value was 8.88 ± 0.5.

For “ATGCTTTTATGCACACGTACAAAAATATTATATAAT [XGTACX_site5589]”, which “gcPBM binding intensity (ln)” value is on record?
Its value is 8.77 ± 0.042.

“ATAATTTTATCATATATATATATATATAAATACTTA [CACACA_negctrl_site743]” was tested. Which “gcPBM binding intensity (ln)” value did it give?
Its value is 8.37 ± 0.28.

Which “gcPBM binding intensity (ln)” value does the source give for “AAAAATTGAATTTTTTTTTTTTTTTTGAGAAGGAAA [CACACA_negctrl_site1196]” here?
Its value is 8.39 ± 0.74.

Which “gcPBM binding intensity (ln)” value does the source give for “TTATGTAGCTAGCTATAAACTTTTTTTTATTTAAAA [CACACA_negctrl_site1297]” here?
Its value is 8.2 ± 0.46.

Which “gcPBM binding intensity (ln)” value does the source give for “TATATAGATATGATAGTGCATTTTTAGAAAACATAA [GTGCAC_site9962]” here?
The value was 8.56 ± 0.092.

How did the “gcPBM binding intensity (ln)” value turn out when “AACAGATAAAAGGGTACACACATATATACAAGTACA [CACACA_site7959]” was run?
Its value is 8.71 ± 0.54.

Which “gcPBM binding intensity (ln)” value does the source give for “ATTATTATTAAATACACACACATACCTCCATGTTAG [CACACA_site3430]” here?
The value was 8.48 ± 0.37.

“ATATATATATATATATGTACATACTATACAATAATT [XGTACX_site3546]” was tested. Which “gcPBM binding intensity (ln)” value did it give?
The value was 10.4 ± 0.29.

Which “gcPBM binding intensity (ln)” value does the source give for “TTTTTTTTAAAACTATGTACGTAAAAATTGTAGTTT [XGTACX_site2302]” here?
The value was 8.71 ± 0.099.

“TTTATATGTATTAATTGTACACATATAATGTGTTTT [XGTACX_site3064]” was tested. Which “gcPBM binding intensity (ln)” value did it give?
The value was 8.52 ± 0.33.

Which “gcPBM binding intensity (ln)” value does the source give for “ATATGTATGTATAATCGTACAAAATTTGGCGATCTT [XGTACX_site8698]” here?
Its value is 8.38 ± 0.33.

“AAATAAAGGAAATAAAAAGAAACCAATTTCGAATAT [CACACA_negctrl_site953]” was tested. Which “gcPBM binding intensity (ln)” value did it give?
The value was 8.77 ± 0.51.

“GATATAATTATGTGTACACAATTTTTTTTTTTTTTT [CACACA_site4501]” was tested. Which “gcPBM binding intensity (ln)” value did it give?
Its value is 8.69 ± 0.13.

Which “gcPBM binding intensity (ln)” value does the source give for “ATATAGTAAATTGGTAGTACATAAAATGATTTTATG [XGTACX_site4143]” here?
Its value is 8.59 ± 0.33.

How did the “gcPBM binding intensity (ln)” value turn out when “AGAACTTTTAATGGATGTACAGTTATTTTATTATTT [XGTACX_site6226]” was run?
The value was 8.53 ± 0.36.

For “AAAAAAAAAACATACACACATACATACATATATATT [CACACA_site949]”, which “gcPBM binding intensity (ln)” value is on record?
The value was 8.37 ± 0.41.

“ATGAAGAATTTATATTGTACCCATTTTTATGTAAAT [XGTACX_site2528]” was tested. Which “gcPBM binding intensity (ln)” value did it give?
Its value is 8.59 ± 0.4.

CGAAAAAGTGATATAGTGCAAAATTTTCATTTCTCT was tested. Which “gcPBM binding intensity (ln)” value did it give?
Its value is 8.61 ± 0.33.

“TTTTTTTTTCTTCTTTTCAAATTTAAGAAATTATAA [CACACA_negctrl_site18]” was tested. Which “gcPBM binding intensity (ln)” value did it give?
Its value is 8.29 ± 0.44.

For “TGCTGTATATTTTTCTGTACACATTTATATATTCCA [XGTACX_site6244]”, which “gcPBM binding intensity (ln)” value is on record?
The value was 8.76 ± 0.53.

How did the “gcPBM binding intensity (ln)” value turn out when “TTGTTATTATATTACGCATGCATCATTTATTTGCAC [TGCATGCA_site525]” was run?
Its value is 9.3 ± 0.12.

“AAAGGGAATTATGGCTGTACGCATTTTATAAATAGC [XGTACX_site5878]” was tested. Which “gcPBM binding intensity (ln)” value did it give?
The value was 8.62 ± 0.47.

Which “gcPBM binding intensity (ln)” value does the source give for “AAGAATAAGAAGAAGGATCCCCTTCAAAAAAAAAAA [TGCATGCA_negctrl_site525]” here?
The value was 8.32 ± 0.61.

“TGATAAGAAAAAGACTTTTCCTTCTTACTTTCTATG [CACACA_negctrl_site782]” was tested. Which “gcPBM binding intensity (ln)” value did it give?
The value was 8.26 ± 0.28.

How did the “gcPBM binding intensity (ln)” value turn out when “CAAAATAAATAATTTGGTACACATAAAAAAAAAAAA [XGTACX_site8380]” was run?
The value was 8.58 ± 0.38.

“AATAATGTTTTTATATCACACACAAATATTAAATGA [CACACA_site8074]” was tested. Which “gcPBM binding intensity (ln)” value did it give?
The value was 8.27 ± 0.31.

“AAAATTGGTGAAAATGAAAATATGATTATATGTATA [XGTACX_negctrl_site505]” was tested. Which “gcPBM binding intensity (ln)” value did it give?
The value was 8.53 ± 0.51.

With “CCATAAAACTATAATACACACATATAGATTAACATA [CACACA_site7849]” as the sequence, how does the “gcPBM binding intensity (ln)” value read?
The value was 8.51 ± 0.59.

How did the “gcPBM binding intensity (ln)” value turn out when “AAGTAAAAAAAAAAAAGTACATGTTTATATAAATAT [XGTACX_site4741]” was run?
The value was 8.59 ± 0.33.

For “ATATATTAAAAGGATTAGGAAAAAATATGATTTATC [TGCATGCA_negctrl_site405]”, which “gcPBM binding intensity (ln)” value is on record?
Its value is 8.4 ± 0.34.

Which “gcPBM binding intensity (ln)” value does the source give for “ATAGAATCTGGTAGCTGTACGAGTCGTAGAGTGTAG [XGTACX_site2016]” here?
Its value is 9.06 ± 0.45.

Which “gcPBM binding intensity (ln)” value does the source give for “ATACATATATATAATACACACATAAATGTAACATTT [CACACA_site3518]” here?
The value was 8.59 ± 0.36.

Which “gcPBM binding intensity (ln)” value does the source give for “ATAAATTAACATTAAAGTACATTTTAATAAATATTA [XGTACX_site3647]” here?
The value was 8.04 ± 0.38.

For “ATCCCCATAAAAAATACACACAAATATTTATACATA [CACACA_site1001]”, which “gcPBM binding intensity (ln)” value is on record?
Its value is 8.85 ± 0.64.

“TATTTTATAAATTAATGTACATAAATTATATCTACT [XGTACX_site3625]” was tested. Which “gcPBM binding intensity (ln)” value did it give?
Its value is 8.35 ± 0.16.

With “ATTACGATAGAGAAATGTACATATATATATGTAAGT [XGTACX_site1200]” as the sequence, how does the “gcPBM binding intensity (ln)” value read?
Its value is 8.73 ± 0.43.

How did the “gcPBM binding intensity (ln)” value turn out when “TATATATATAAGATTGTGCACATTAAAATGATAGAA [GTGCAC_site9621]” was run?
Its value is 9.265 ± 0.049.

For “GATCAAAATTATAGAAGTACTTTATATAAATAAAAT [XGTACX_site8161]”, which “gcPBM binding intensity (ln)” value is on record?
Its value is 8.46 ± 0.39.

Which “gcPBM binding intensity (ln)” value does the source give for “TCTATAAAATATAAAAGTACGTATCAATAATTAAAA [XGTACX_site8469]” here?
Its value is 8.55 ± 0.42.

Which “gcPBM binding intensity (ln)” value does the source give for “TCATAAATACATTTTGCATGTAAAATATAGAATACA [TGCATGCA_site755]” here?
Its value is 8.71 ± 0.45.

With “TGTGTATACTTGTGTATACCAAATTAAAGACGCTTT [CACACA_negctrl_site1359]” as the sequence, how does the “gcPBM binding intensity (ln)” value read?
The value was 8.54 ± 0.36.

With “AAAAAATAAAAAAGGTGGTCATGTCACAAATACTTT [XGTACX_site7454]” as the sequence, how does the “gcPBM binding intensity (ln)” value read?
Its value is 8.64 ± 0.47.

— the supplement of paper PMC11417369
